Our source for the self-cleavage values is the RNAGym collection of RNA variant scans (doi:10.7554/elife.90254).

Read counts are not given, so values of variants with three or more changes are uncertain.

B1: LINE1-mini (parent)
chain: GGCAGAGCUCAACACAGCGUGGCAAAGUGGCUGUGGCUAGACUGCC

In this series the parent is B1. Kind of series: self-cleavage, relative activity (ratio to wild type); higher = more cleavage; in vitro, sequencing; the parent is a self-cleaving ribozyme.
For GGCAGAGCCCAACACAGCGUGCCAAAGUGCCUGUGGCUAGACUGCC [U9C G22C G30C], the self-cleavage is 0.03.

With GGCAGAGCGCAACCCAGCGUCGCAAAGUGGCUGUGGCUAGACUGCC [U9G A14C G21C], the self-cleavage is 0.03.

On to GGCAGAGCCCAACACAGCGUGGUAAAGUGGCUGUGGCUAGACUGAC [U9C C23U C45A], for which the self-cleavage came out at 0.

Turning to GGCAGAGCCCAACACAGCGUGGCAAAGUGGCUAUGGAUACACUGCC [U9C G33A C37A G40C], the self-cleavage was 0.01.

As to GGCAGAGCGCAACACAGCGUGGCAAUGGGGCUGUAGCUAGACUGCC [U9G A26U U28G G35A], the self-cleavage stood at 0.04.

As for GGCAGAGCCCAACACAGCGUUGCAAAGUGGCUAUGGCUAGACUGCC [U9C G21U G33A], the self-cleavage turned out to be 0.03.

In the case of GGCAGAGCCCAACACAGCGUGUCAAAGUGACUGUGGCUAGACUGCC [U9C G22U G30A], the self-cleavage stood at 0.03.

For GGCAGAGCCCAACACAGCGGAGCAAUGUGGAUGUGGCUAGACUGCC [U9C U20G G21A A26U C31A], the self-cleavage is 0.02.

As to GGCAGAGCCCAACACAGCGUGGCAAAGUGGCUGUGUCGAGACUGCC [U9C G36U U38G], the self-cleavage stood at 0.01.

In the case of GGCAGAGCCCAACACAGCGCGGCAAAGUGGCUAUGGCUAGACUGCC [U9C U20C G33A], the self-cleavage was 0.01.

Turning to GGCAGAGCGAAACACAGCGUGGCAAAGUGGCUGUGGCUACACUGCC [U9G C10A G40C], the self-cleavage is 0.02.

For the variant GGCAGAGCGCCACACAGCGUGGCAAAGUAGUUGUGGUUAGAAUGCC [U9G A11C G29A C31U C37U C42A], the self-cleavage was 0.

In the case of GGCAGAGCCCAACACACCGUGGCACAGUGGCUGUAGCAAGACUGCC [U9C G17C A25C G35A U38A], the self-cleavage worked out at 0.01.

As for GGCAGAGCCCAACACAGCGUGGCAAAAUAGCUGUGGCUAGACUGCC [U9C G27A G29A], the self-cleavage is 0.03.

On to GGCAGAGCCCAACACAGCGUGGCAAAAUUGCUGUGGCUAGACUGCC [U9C G27A G29U], for which the self-cleavage is 0.03.

As for GGCAGAGCGCACCACAGCGUGGCAAAGUGGCUUUGGCUAGACUGCC [U9G A12C G33U], the self-cleavage is 0.01.

Regarding GGCAGAGCGCGACACAGCGUGGCAAAGUGGCUGUGGCUAUACAGCC [U9G A11G G40U U43A], the self-cleavage turned out to be 0.

For the variant GGCAGAGCGUAACACAGCGUGGCAAAGUGCCUGUGGCUAGACUGCC [U9G C10U G30C], the self-cleavage came out at 0.04.

For GGCAGAGCCCAACACAGCGUGGAAAAGUGGCUGUGGCUAUACUGCC [U9C C23A G40U], the self-cleavage worked out at 0.01.

For GGCAGAGCCCAACACAUCGUGGCAAAGCGGCUGUGGCUAGGCUACC [U9C G17U U28C A41G G44A], the self-cleavage was 0.01.

In the case of GGCAGAGCCCAACACAGCGUGGCAAAGUAGCUGUGGCUAGACUUCC [U9C G29A G44U], the self-cleavage is 0.02.

As to GGCAGAGCGCAUCACAACGUGGCAAAGUGGCUGUGUAUAGACUGCC [U9G A12U G17A G36U C37A], the self-cleavage was found to be 0.04.

Consider GGCAGAGCCCAACACAGCGUGGCAAAGUGGCUUUGACUAGACUGCC [U9C G33U G36A], for which the self-cleavage came out at 0.05.

As for GGCAGAGCGCAUCACAGCGUGGCAAAGUGGCUGUGGUUAGACUGCC [U9G A12U C37U], the self-cleavage stood at 0.06.

Take GGCAGAGCGAAACACAGCGUGGCAAAGUGGCUGUGGCUAGACUGCA [U9G C10A C46A]: the self-cleavage stood at 0.02.

Take GGCAGAGCGAAACAGAGCGUGGCAAAGUGGCUGGGGCUGGACUGCC [U9G C10A C15G U34G A39G]: the self-cleavage was 0.01.

For GGCAGAGCCCAACACAGCGUGGAAAAGUGGGUGUGGCUAGACUGCC [U9C C23A C31G], the self-cleavage stood at 0.02.

Turning to GGCAGAGCGUAACACAGCGUGGCAAAGUGGCUGUGGCUAGUCUGCC [U9G C10U A41U], the self-cleavage is 0.03.

Consider GGCAGAGCCCAACACAGCGUGCCAGAGUGGCUGUGGCUAGACUGCC [U9C G22C A25G], for which the self-cleavage turned out to be 0.01.

Regarding GGCAGAGCCCAACACAGAGUGGCAAAGUGGCAGUCGCUAGACUGCC [U9C C18A U32A G35C], the self-cleavage amounted to 0.01.

For the variant GGCAGAGCCCAACACAGCGUGCCAAAGUGGUUGUGGCUAGUCUGCC [U9C G22C C31U A41U], the self-cleavage amounted to 0.02.

In the case of GGCAGAGCGCAACACAGCGUGGCACAGCUGCUGUGGCUAGACUGCC [U9G A25C U28C G29U], the self-cleavage was determined as 0.03.

GGCAGAGCCCAACACAGCGUGGCAAAGGGGCUUUGGCUAGACUGCC [U9C U28G G33U]: the self-cleavage came out at 0.01.

On to GGCAGAGCGAAACACAGCGUGGUAAAGUGGCUUUGGCUAGACUGCC [U9G C10A C23U G33U], for which the self-cleavage was 0.03.

Turning to GGCAGAGCCCAACACAGGGUGGCAAAGCGGCUUUAACUAGAUUGCC [U9C C18G U28C G33U G35A G36A C42U], the self-cleavage stood at 0.01.

For the variant GGCAGAGCCCAACACAGCGUGGCAAAAUGGCCCUGGCUAGACUGCC [U9C G27A U32C G33C], the self-cleavage turned out to be 0.01.

Take GGCAGAGCCCAACAGAGCGUGGCAAAGUGGCUGUGACUAGACGGCC [U9C C15G G36A U43G]: the self-cleavage amounted to 0.02.

Consider GGCAGAGCCCAACACAGCGUGGCAAAGUGGCUGUGGCUAAGCUGCC [U9C G40A A41G], for which the self-cleavage came to 0.01.

In the case of GGCAGAGCGCAAAUCAGCGUGGCAAAGUGGCUGUGGCUAGACAGCC [U9G C13A A14U U43A], the self-cleavage is 0.01.

Consider GGCAGAGCGCAAAACAGCGUGGCAAAGUGACUGUGGGUAGACUGCC [U9G C13A G30A C37G], for which the self-cleavage was determined as 0.11.

Consider GGCAGAGCCCAACACAGCGUGGAAAAGUGGCUGUGGCUAGACGUCC [U9C C23A U43G G44U], for which the self-cleavage came to 0.03.

For GGCAGAGCCCAACACAGCGUGGCAAAGUGGCUGUGGUUAGACUGCA [U9C C37U C46A], the self-cleavage came out at 0.01.

GGCAGAGCCCAACACAGCAUGGGAAAGUGGCUGUGGCGAGACUGCC [U9C G19A C23G U38G]: the self-cleavage was determined as 0.01.

GGCAGAGCCCAACACAACAUGGCAAAGUGGCUGUGGCUAGAAAGCC [U9C G17A G19A C42A U43A]: the self-cleavage is 0.04.

In the case of GGCAGAGCCCAACACAGCGUGGCAAAGUGGCUGUGGUUAGAUUGCC [U9C C37U C42U], the self-cleavage was 0.01.

On to GGCAGAGCCCAACACAGCGUGGCAAAAUGGGUGUGGCUAGACUGCC [U9C G27A C31G], for which the self-cleavage turned out to be 0.03.

In the case of GGCAGAGCGCACCACAGCGUGGCAAAGUGGCUGUGGCUAGACUGCU [U9G A12C C46U], the self-cleavage amounted to 0.02.

For the variant GGCAGAGCCCAACACAGCAUGCCAAAGAGGCUGUGGCUAGACUGCC [U9C G19A G22C U28A], the self-cleavage was 0.02.

Turning to GGCAGAGCCCAACACAGCGUGGCAAAGUGGCUUUGGCUAGGCUCCU [U9C G33U A41G G44C C46U], the self-cleavage came out at 0.01.

Regarding GGCAGAGCGCAAAACAGCGUUGCAAAGUGGCUGUCGCUAGACUGCC [U9G C13A G21U G35C], the self-cleavage amounted to 0.03.

As for GGCAGAGCGCAACCCAGCGUGGCAAAGUGGCUGUGGCUAUACUGCC [U9G A14C G40U], the self-cleavage was 0.02.

Take GGCAGAGCCCAACACAGCGUGGCAAACUGGCUGUGGUUAGACUGCC [U9C G27C C37U]: the self-cleavage came out at 0.02.

For the variant GGCAGAGCGUAACACAGCGUGGCAAAGUGGCUGUGGUUAGGCUGCC [U9G C10U C37U A41G], the self-cleavage is 0.01.

As to GGCAGAGCCCAACACAGCGUGGCAAAGUGGCUGUUGCAAGACUGCC [U9C G35U U38A], the self-cleavage was determined as 0.03.

On to GGCAGAGCGCAACACGGCGUGGCAAAGUAGCUGUGGCUAGACUGCC [U9G A16G G29A], for which the self-cleavage was determined as 0.05.

For GGCAGAGCGCAACACAGCGUGGCUAAGCGGCUGUGGCUAGACUGCC [U9G A24U U28C], the self-cleavage was 0.07.
